The source of these data is article PMC4336329 (PLoS ONE, 2015).

Among all 310,000 compounds or so, about 2,200 (0.71%) showed an effect of 50% or more. Effects have a minus sign here. The list shows a part of the results.

human ether-à-go-go-related gene (hERG) potassium channel, sequence (Q12809 whole entry, looked up): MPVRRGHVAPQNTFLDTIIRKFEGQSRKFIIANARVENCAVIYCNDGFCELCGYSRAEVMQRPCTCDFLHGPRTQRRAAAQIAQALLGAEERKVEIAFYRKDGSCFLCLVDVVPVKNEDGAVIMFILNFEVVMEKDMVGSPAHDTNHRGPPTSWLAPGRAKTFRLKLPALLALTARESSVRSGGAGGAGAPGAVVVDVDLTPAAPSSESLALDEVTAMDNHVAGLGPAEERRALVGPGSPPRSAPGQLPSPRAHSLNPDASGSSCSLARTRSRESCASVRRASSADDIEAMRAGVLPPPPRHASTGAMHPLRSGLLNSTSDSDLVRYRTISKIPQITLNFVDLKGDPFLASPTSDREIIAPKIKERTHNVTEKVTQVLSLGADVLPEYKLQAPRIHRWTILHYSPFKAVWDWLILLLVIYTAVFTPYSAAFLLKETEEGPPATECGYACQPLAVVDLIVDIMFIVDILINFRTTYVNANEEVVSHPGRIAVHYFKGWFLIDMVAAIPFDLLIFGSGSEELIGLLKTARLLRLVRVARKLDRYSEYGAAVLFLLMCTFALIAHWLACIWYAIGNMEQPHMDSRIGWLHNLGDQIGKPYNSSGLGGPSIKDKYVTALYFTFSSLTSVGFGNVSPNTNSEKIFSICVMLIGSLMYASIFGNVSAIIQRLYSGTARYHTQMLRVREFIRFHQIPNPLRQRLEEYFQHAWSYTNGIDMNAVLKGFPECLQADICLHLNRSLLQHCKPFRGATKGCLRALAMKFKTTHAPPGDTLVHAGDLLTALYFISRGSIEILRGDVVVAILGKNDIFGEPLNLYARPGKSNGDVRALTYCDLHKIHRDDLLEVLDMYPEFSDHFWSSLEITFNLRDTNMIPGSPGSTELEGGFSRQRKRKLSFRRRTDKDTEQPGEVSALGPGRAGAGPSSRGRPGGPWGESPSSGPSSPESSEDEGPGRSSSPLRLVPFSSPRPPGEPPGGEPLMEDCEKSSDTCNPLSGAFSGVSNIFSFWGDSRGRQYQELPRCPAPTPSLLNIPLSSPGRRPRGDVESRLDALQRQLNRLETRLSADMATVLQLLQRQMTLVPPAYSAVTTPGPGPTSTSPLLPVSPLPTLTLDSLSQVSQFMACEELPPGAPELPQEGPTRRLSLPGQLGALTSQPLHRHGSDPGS

The experiment addresses human ether-à-go-go-related gene (hERG) potassium channel (human, UniProt Q12809). As to the kind of experiment: primary screen, population patch clamp on CHO cells stably expressing hERG.
Turning to `CC1(C)CN=C(Nc2ccc(F)c(Cl)c2)S1`, the “hERG current change (%, negative = inhibition) at 1uM” value worked out at 5.48%.

In the case of `COc1ccc(N(CC(=O)Nc2ccc(C)c(C)c2)C2=NC3CS(=O)(=O)CC3S2)cc1` (stereo not drawn), the “hERG current change (%, negative = inhibition) at 1uM” value is recorded as 15.1%.

For `COCCN(C(=O)Cn1nnc2ccccc21)C(C(=O)NC1CCCC1)c1cccc(OC)c1OC` (stereo not drawn), the “hERG current change (%, negative = inhibition) at 1uM” value amounted to 8.66%.

For `N/C(=N\OC(=O)COc1ccc([N+](=O)[O-])cc1)c1ccncc1`, the “hERG current change (%, negative = inhibition) at 1uM” value was -1.38%.

`CC1=C(C(=O)OC2CCCCCCC2)C(c2cccc(O)c2)NC(=O)N1` (stereo not drawn): the “hERG current change (%, negative = inhibition) at 1uM” value was 2.91%.

In the case of `COc1ccc(C(=O)ON=C2C=C(C)C(=O)C(C)=C2)cc1`, the “hERG current change (%, negative = inhibition) at 1uM” value is reported as 7.17%.

In the case of `COc1ccc(Br)c(C(=O)NC(C)(C)CO)c1`, the “hERG current change (%, negative = inhibition) at 1uM” value came to 7.17%.

For the compound `CCc1ccc(OCC(=O)NNC(=O)Cc2c(F)cccc2Cl)cc1`, the “hERG current change (%, negative = inhibition) at 1uM” value stood at 17%.

With `O=C(CN1C(=O)COc2ccc(S(=O)(=O)N3CCCC3)cc21)NCc1ccccn1`, the “hERG current change (%, negative = inhibition) at 1uM” value came to 11.1%.

Take `COc1ccc(S(N)(=O)=O)cc1C(=O)N1CCCC1`: the “hERG current change (%, negative = inhibition) at 1uM” value stood at 6.16%.

Consider `COc1ccc(NC(=S)N/C(=N/CS(=O)(=O)c2ccccc2)c2ccccc2)cc1`, for which the “hERG current change (%, negative = inhibition) at 1uM” value turned out to be 0.146%.

As for `CN(C)/C=N/c1cnc(C(=O)c2ccc(Cl)cc2)n1C`, the “hERG current change (%, negative = inhibition) at 1uM” value amounted to 10.2%.

On to `COc1ccc(N2CCN(C(CNC(=O)C(=O)NCc3cccs3)c3ccco3)CC2)cc1` (stereo not drawn), for which the “hERG current change (%, negative = inhibition) at 1uM” value was found to be 7.48%.

`O=C(CCc1nc2ccccc2c(=O)[nH]1)N1CCN(C/C=C/c2ccccc2)CC1`: the “hERG current change (%, negative = inhibition) at 1uM” value is reported as -12.3%.

Take `CC(=O)n1c(=O)oc2ccccc21`: the “hERG current change (%, negative = inhibition) at 1uM” value is 16.9%.

As to `CCOC(=O)C1CCN(S(=O)(=O)c2cccc(C(=O)Nc3ccccc3)c2)CC1`, the “hERG current change (%, negative = inhibition) at 1uM” value is given as 2.34%.

For the compound `CC(=O)Nc1cccc(NC(=O)c2cc3ccccc3o2)c1`, the “hERG current change (%, negative = inhibition) at 1uM” value turned out to be 12.1%.

Take `O=C(c1cccnc1)N(c1cc2sc(=O)oc2c2ccccc12)S(=O)(=O)c1ccccc1`: the “hERG current change (%, negative = inhibition) at 1uM” value came to 13%.

Take `O=C(Nc1nc(-c2cccnc2)cs1)c1cccc([N+](=O)[O-])c1`: the “hERG current change (%, negative = inhibition) at 1uM” value is listed as 4.12%.

With `CC1=C(C(=O)Nc2ccccc2C)C(c2ccccc2)NC(=O)N1` (stereo not drawn), the “hERG current change (%, negative = inhibition) at 1uM” value was determined as 10.1%.

Regarding `COC(=O)C1CCN(C(=O)CSc2nnc(-c3ccccc3)o2)CC1`, the “hERG current change (%, negative = inhibition) at 1uM” value is on record as 12.8%.

Regarding `Cc1ccc(Cn2nnc3c(=O)[nH]c(C4CCN(S(=O)(=O)c5ccc(F)cc5)CC4)nc32)cc1`, the “hERG current change (%, negative = inhibition) at 1uM” value worked out at 4.95%.

`CCn1c(CNC(=O)c2ccc(OC)cc2)nnc1SCC(=O)c1ccccc1`: the “hERG current change (%, negative = inhibition) at 1uM” value was 12.9%.

As to `CSc1ccccc1NC(=O)C(=O)c1c[nH]c2ccccc12`, the “hERG current change (%, negative = inhibition) at 1uM” value is listed as 0.595%.

Regarding `CCOc1ccc(-c2c(C(=O)N/N=C/C3CC=CCC3)nnn2-c2nonc2N)cc1` (stereo not drawn), the “hERG current change (%, negative = inhibition) at 1uM” value was found to be 10.3%.

As for `O=C(NCc1ccccn1)Nc1cccc(F)c1`, the “hERG current change (%, negative = inhibition) at 1uM” value is 11.8%.

In the case of `CCOC(=O)c1ccc(NC(=O)c2nc(S(=O)(=O)Cc3ccccc3)ncc2Cl)cc1`, the “hERG current change (%, negative = inhibition) at 1uM” value amounted to 15.9%.

For the compound `COc1ccc(C(=O)NCc2cccnc2)cc1C(=O)NCc1cccnc1.O`, the “hERG current change (%, negative = inhibition) at 1uM” value came out at 6.49%.

For the compound `CC(C)(C)OC(=O)NCCCC[C@H](NC(=O)c1nc[nH]c1C(=O)N[C@@H](CCCCNC(=O)OC(C)(C)C)C(=O)OC(C)(C)C)C(=O)OC(C)(C)C`, the “hERG current change (%, negative = inhibition) at 1uM” value was 5.22%.

For `COC(=O)/C(=C\Nc1ccc(Oc2ccc(F)cc2F)nc1)NC(=O)c1ccccc1`, the “hERG current change (%, negative = inhibition) at 1uM” value was 13.1%.

With `COc1cccc(C#Cc2c(CO)[nH]c3ccccc23)c1`, the “hERG current change (%, negative = inhibition) at 1uM” value is 5.95%.

`CNC(=S)N/N=C(\C)c1ccc(Cl)c(Cl)c1`: the “hERG current change (%, negative = inhibition) at 1uM” value is on record as 8.53%.

Take `CCOC(=O)c1c(C)[nH]c(C)c1C(=O)CSc1nc2ccccc2c(=O)n1-c1ccc(CC)cc1`: the “hERG current change (%, negative = inhibition) at 1uM” value is 8.59%.

Consider `O=C(CCn1ccc2cc(S(=O)(=O)N3CCCC3)ccc21)NCc1ccccc1F`, for which the “hERG current change (%, negative = inhibition) at 1uM” value was 13.7%.

Turning to `CCOC(=O)/C(=C/c1ccco1)NC(=O)c1ccc(Br)o1`, the “hERG current change (%, negative = inhibition) at 1uM” value is 13.4%.

On to `Cc1cc2c(=O)n(CC(=O)N3CCN(c4ccccc4)CC3)cnc2s1`, for which the “hERG current change (%, negative = inhibition) at 1uM” value stood at 10.1%.

For the compound `Cc1nc2ccccc2c(=O)n1/N=C/c1ccc(O)cc1`, the “hERG current change (%, negative = inhibition) at 1uM” value stood at 13.9%.

In the case of `COc1cc(Cl)c(C)cc1NC(=S)NN`, the “hERG current change (%, negative = inhibition) at 1uM” value stood at 13.1%.

Take `O=c1cc(O)c2sc3nc4c(c(C(F)(F)F)c3c2[nH]1)CCCCC4`: the “hERG current change (%, negative = inhibition) at 1uM” value is -12.1%.

Turning to `Cc1nc2c(-c3ccc(F)cc3)c(C)nn2c(C)c1CCC(=O)N1CCN(c2ccc(F)cc2)CC1`, the “hERG current change (%, negative = inhibition) at 1uM” value is -49.3%.

For the compound `CN(C)C(CNC(=O)NC1CCCCC1)c1cccnc1` (stereo not drawn), the “hERG current change (%, negative = inhibition) at 1uM” value was 10.4%.

For the compound `CCC(=O)N1CC2(CC(c3cccc([N+](=O)[O-])c3)=NO2)C[C@H]1C(=O)NCC(N)=O` (stereo partly drawn), the “hERG current change (%, negative = inhibition) at 1uM” value was determined as 8.22%.

With `Cc1cccc(-c2nnc3n2N=C(c2ccccc2Br)CS3)c1`, the “hERG current change (%, negative = inhibition) at 1uM” value is given as -8.2%.

In the case of `Cc1ccc(-c2csc3nnc(SCc4csc(C)n4)n23)cc1`, the “hERG current change (%, negative = inhibition) at 1uM” value was -6.06%.

Take `COc1ccc(-c2cccc(C(=O)Nc3ccccc3C)c2)cc1`: the “hERG current change (%, negative = inhibition) at 1uM” value is reported as -1.41%.
